Read-outs that look alike come from different tables or passages of the source.
T1: human VEGF-A (human, UniProt P15692-4 27-191)
T1 sequence (looked up): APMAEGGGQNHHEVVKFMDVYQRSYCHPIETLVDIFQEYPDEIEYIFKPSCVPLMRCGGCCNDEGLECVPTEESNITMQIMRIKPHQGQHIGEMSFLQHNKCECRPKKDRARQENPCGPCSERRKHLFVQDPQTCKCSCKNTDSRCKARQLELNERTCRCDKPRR


Key:
Assay in all cases: cell-based or functional assay
human VEGF-A [1] = target: T1, human VEGF-A
human VEGF-A [2] = target: T1, human VEGF-A; remark: listed apart in the source
human VEGF-A [3] = target: T1, human VEGF-A; remark: listed apart in the source
human TrkB receptor [4] = target: T2, human TrkB receptor (human, UniProt Q16620 32-822)
human TrkB receptor [5] = target: T2, human TrkB receptor; remark: listed apart in the source
human TrkB receptor [6] = target: T2, human TrkB receptor; remark: listed apart in the source
human VEGF-A [7] = target: T1, human VEGF-A; remark: listed apart in the source
human VEGF-A [8] = target: T1, human VEGF-A; remark: listed apart in the source
human VEGF-A [9] = target: T1, human VEGF-A; remark: listed apart in the source
human VEGF-A [10] = target: T1, human VEGF-A; remark: listed apart in the source

T2 sequence (Q16620 32-822): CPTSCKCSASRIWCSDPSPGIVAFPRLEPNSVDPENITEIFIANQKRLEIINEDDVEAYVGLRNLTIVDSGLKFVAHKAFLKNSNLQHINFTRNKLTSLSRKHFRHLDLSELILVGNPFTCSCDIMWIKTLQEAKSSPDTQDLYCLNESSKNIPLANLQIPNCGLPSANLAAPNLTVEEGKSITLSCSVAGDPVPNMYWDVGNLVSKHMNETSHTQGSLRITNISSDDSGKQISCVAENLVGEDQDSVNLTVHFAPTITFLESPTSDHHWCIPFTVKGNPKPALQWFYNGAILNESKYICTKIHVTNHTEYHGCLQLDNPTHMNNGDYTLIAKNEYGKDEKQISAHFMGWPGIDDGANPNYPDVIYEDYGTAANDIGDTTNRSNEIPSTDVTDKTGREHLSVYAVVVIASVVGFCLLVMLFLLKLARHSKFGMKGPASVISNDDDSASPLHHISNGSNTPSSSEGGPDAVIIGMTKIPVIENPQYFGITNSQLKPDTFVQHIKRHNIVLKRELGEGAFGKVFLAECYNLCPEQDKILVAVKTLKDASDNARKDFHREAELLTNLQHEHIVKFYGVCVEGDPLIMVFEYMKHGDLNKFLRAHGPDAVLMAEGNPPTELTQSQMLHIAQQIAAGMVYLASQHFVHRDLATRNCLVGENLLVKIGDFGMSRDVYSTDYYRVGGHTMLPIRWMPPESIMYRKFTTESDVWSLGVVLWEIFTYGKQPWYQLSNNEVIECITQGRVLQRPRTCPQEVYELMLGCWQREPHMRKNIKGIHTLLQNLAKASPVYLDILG

| concentration for full inhibition of VEGF-induced HRMEC proliferation (human VEGF-A [1]) [nM] | fold better IC50 than Ranibizumab scFv or TPP-11736 (human VEGF-A [1]) [fold] | Bottom plateau (ERK1/2 phosphorylation, counts) (human VEGF-A [2]) [counts] | Bottom plateau (Src phosphorylation, counts) (human VEGF-A [2]) [counts] | IC50 (ERK1/2 phosphorylation) (human VEGF-A [2]) [nM] | IC50 (Src phosphorylation) (human VEGF-A [2]) [nM] | Bottom plateau (ERK1/2 phosphorylation, counts) (human VEGF-A [3]) [counts] | Bottom plateau (Src phosphorylation, counts) (human VEGF-A [3]) [counts] | IC50 (ERK1/2 phosphorylation) (human VEGF-A [3]) [nM] | IC50 (Src phosphorylation) (human VEGF-A [3]) [nM] | EC50 (pERK) (human TrkB receptor [5]) [nM] | EC50 (pTrkB) (human TrkB receptor [5]) [nM] | Binder | further results |
| --- | --- | --- | --- | --- | --- | --- | --- | --- | --- | --- | --- | --- | --- |
| 0.25 | 10 | 438 | 4770 | 0.802 | 0.276 | 438 | 4770 | 0.802 | 0.276 | – | – | TPP-14940 (bispecific antibody, human IgG1, kappa) light: DIQLTQSPSSLSASVGDRVTITCSASQDISNYLNWYQQKPGKAPKVLIYFTSSLHSGVPSRFSGSGSGTDFTLTISSLQPEDFATYYCQQYSTVPWTFGQGTKVEIKRTVAAPSVFIFPPSDEQLKSGTASVVCLLNNFYPREAKVQWKVDNALQSGNSQESVTEQDSKDSTYSLSSTLTLSKADYEKHKVYACEVTHQGLSSPVTKSFNRGEC heavy: EVQLVESGGGLVQPGGSLRLSCAASGYDFTHYGMNWVRQAPGKGLEWVGWINTYTGEPTYAADFKRRFTFSLDTSKSTAYLQMNSLRAEDTAVYYCAKYPYYYGTSHWYFDVWGQGTLVTVSSASTKGPSVFPLAPSSKSTSGGTAALGCLVKDYFPEPVTVSWNSGALTSGVHTFPAVLQSSGLYSLSSVVTVPSSSLGTQTYICNVNHKPSNTKVDKRV[in this place human IgG1 Fc with changes]GGSEGKSSGSGSESKSTGGSQVQLVQSGAEVKKPGASVKVSCKASGYTFTNYDIIWVRQAPGQGLEWMGYINPYNDGTKYNEKFKGRVTMTRDTSTSTVYMELSSLRSEDTAVYYCARLLKYRRFRYYAIDYWGQGTTVTVSSGGSEGKSSGSGSESKSTGGSDIQMTQSPSSLSASVGDRVTITCRTSENVYSNLAWYQQKPGKAPKLLIYAASNLQSGVPSRFSGSGSGTDYTFTISSLQPEDIATYYCQHFWGSPFTFGQGTKLEIK | EC50 (pERK) (human TrkB receptor [4]): 0.475 nM; EC50 (pTrkB) (human TrkB receptor [4]): 3.21 nM |
| 0.25 | 10 | 1150 | 4370 | 0.43 | 0.393 | 1150 | 4370 | 0.43 | 0.393 | 1.29 | 6.28 | TPP-14941 (bispecific antibody, human IgG1, kappa) light: DIQLTQSPSSLSASVGDRVTITCSASQDISNYLNWYQQKPGKAPKVLIYFTSSLHSGVPSRFSGSGSGTDFTLTISSLQPEDFATYYCQQYSTVPWTFGQGTKVEIKRTVAAPSVFIFPPSDEQLKSGTASVVCLLNNFYPREAKVQWKVDNALQSGNSQESVTEQDSKDSTYSLSSTLTLSKADYEKHKVYACEVTHQGLSSPVTKSFNRGEC heavy: EVQLVESGGGLVQPGGSLRLSCAASGYDFTHYGMNWVRQAPGKGLEWVGWINTYTGEPTYAADFKRRFTFSLDTSKSTAYLQMNSLRAEDTAVYYCAKYPYYYGTSHWYFDVWGQGTLVTVSSASTKGPSVFPLAPSSKSTSGGTAALGCLVKDYFPEPVTVSWNSGALTSGVHTFPAVLQSSGLYSLSSVVTVPSSSLGTQTYICNVNHKPSNTKVDKRV[in this place human IgG1 Fc with changes]GGSEGKSSGSGSESKSTGGSDIQMTQSPSSLSASVGDRVTITCRTSENVYSNLAWYQQKPGKAPKLLIYAASNLQSGVPSRFSGSGSGTDYTFTISSLQPEDIATYYCQHFWGSPFTFGQGTKLEIKGGSEGKSSGSGSESKSTGGSQVQLVQSGAEVKKPGASVKVSCKASGYTFTNYDIIWVRQAPGQGLEWMGYINPYNDGTKYNEKFKGRVTMTRDTSTSTVYMELSSLRSEDTAVYYCARLLKYRRFRYYAIDYWGQGTTVTVSS | – |
| – | – | – | – | – | – | – | – | – | – | 1.77 | 7.37 | TPP-19989 (bispecific antibody, human IgG1, kappa) light: DIQLTQSPSSLSASVGDRVTITCSASQDISNYLNWYQQKPGKAPKVLIYFTSSLHSGVPSRFSGSGSGTDFTLTISSLQPEDFATYYCQQYSTVPWTFGQGTKVEIKRTVAAPSVFIFPPSDEQLKSGTASVVCLLNNFYPREAKVQWKVDNALQSGNSQESVTEQDSKDSTYSLSSTLTLSKADYEKHKVYACEVTHQGLSSPVTKSFNRGEC heavy: EVQLVESGGGLVQPGGSLRLSCAASGYDFTHYGMNWVRQAPGKGLEWVGWINTYTGEPTYAADFKRRFTFSLDTSKSTAYLQMNSLRAEDTAVYYCAKYPYYYGTSHWYFDVWGQGTLVTVSSASTKGPSVFPLAPSSKSTSGGTAALGCLVKDYFPEPVTVSWNSGALTSGVHTFPAVLQSSGLYSLSSVVTVPSSSLGTQTYICNVNHKPSNTKVDKRV[in this place human IgG1 Fc with changes]GGGGSGGGGSGGGGSGGGGSDIQMTQSPSSLSASVGDRVTITCRTSENVYSNLAWYQQKPGKAPKLLIYAASNLQSGVPSRFSGSGSGTDYTFTISSLQPEDIATYYCQHFWGSPFTFGQGTKLEIKGGSEGKSSGSGSESKSTGGSQVQLVQSGAEVKKPGASVKVSCKASGYTFTNYDIIWVRQAPGQGLEWMGYINPYNDGTKYNEKFKGRVTMTRDTSTSTVYMELSSLRSEDTAVYYCARLLKYRRFRYYAIDYWGQGTTVTVSS | – |
| 0.25 | – | – | – | – | – | – | – | – | – | – | – | TPP-22214 (bispecific antibody, human IgG1, kappa) light: DIQLTQSPSSLSASVGDRVTITCSASQDISNYLNWYQQKPGKAPKVLIYFTSSLHSGVPSRFSGSGSGTGFTLTISSLQPEDFATYYCQQYSTVPWTFGQGTKVEIKRTVAAPSVFIFPPSDEQLKSGTASVVCLLNNFYPREAKVQWKVDNALQSGNSQESVTEQDSKDSTYSLSSTLTLSKADYEKHKVYACEVTHQGLSSPVTKSFNRGEC heavy: QVQLVESGGGLVQPGGSLRLSCAASGYDFTHYGMNWVRQAPGKGLEWVGWINTYTGEPTYAADFKRRFTFSLDTSKSTAYLQMNSLRAEDTAVYYCAKYPYYYGTSHWYFDVWGQGTLVTVSSASTKGPSVFPLAPSSKSTSGGTAALGCLVKDYFPEPVTVSWNSGALTSGVHTFPAVLQSSGLYSLSSVVTVPSSSLGTQTYICNVNHKPSNTKVDKRV[in this place human IgG1 Fc with changes]GGGGSGGGGSDIQMTQSPSSLSASVGDRVTITCRTSENVYSNLAWYQQKPGKAPKLLIYAASNLQSGVPSRFSGSGSGTDYTFTISSLQPEDIATYYCQHFWGSPFTFGCGTKLEIKGGSEGKSSGSGSESKSTGGSQVQLVQSGAEVKKPGASVKVSCKASGYTFTNYDIIWVRQAPGQCLEWMGYINPYNDGTKYNEKFKGRVTMTRDTSTSTVYMELSSLRSEDTAVYYCARLLKYRRFRYYAIDYWGQGTTVTVSS | TrkB-phosphorylation efficacy (AlphaLISA counts) (human TrkB receptor [6]): 5100 AlphaLISA counts; TrkB-phosphorylation efficacy relative to parental clone without CC bridge (%) (human TrkB receptor [6]): 121%; TrkB-phosphorylation potency (EC50, nM) (human TrkB receptor [6]): 2.18 nM; ERK1/2 phosphorylation: IC50 (human VEGF-A [7]): 0.415 nM; ERK1/2 phosphorylation: LogIC50 (human VEGF-A [7]): -9.38; HRMEC proliferation Delta (area under the curve vs. basal): IC50 (pM) (human VEGF-A [8]): 88.7 pM; HRMEC proliferation Delta (area under the curve vs. basal): LogIC50 (human VEGF-A [8]): -10.1; p38-MAPK phosphorylation (T180/Y182): IC50 (human VEGF-A [9]): 0.472 nM; p38-MAPK phosphorylation (T180/Y182): LogIC50 (human VEGF-A [9]): -9.33; Src phosphorylation (Y419): IC50 (human VEGF-A [10]): 0.426 nM; Src phosphorylation (Y419): LogIC50 (human VEGF-A [10]): -9.03 |
| – | – | – | – | – | – | – | – | – | – | 2.05 | 7.83 | TPP-19988 (bispecific antibody, human IgG1, kappa) light: DIQLTQSPSSLSASVGDRVTITCSASQDISNYLNWYQQKPGKAPKVLIYFTSSLHSGVPSRFSGSGSGTDFTLTISSLQPEDFATYYCQQYSTVPWTFGQGTKVEIKRTVAAPSVFIFPPSDEQLKSGTASVVCLLNNFYPREAKVQWKVDNALQSGNSQESVTEQDSKDSTYSLSSTLTLSKADYEKHKVYACEVTHQGLSSPVTKSFNRGEC heavy: EVQLVESGGGLVQPGGSLRLSCAASGYDFTHYGMNWVRQAPGKGLEWVGWINTYTGEPTYAADFKRRFTFSLDTSKSTAYLQMNSLRAEDTAVYYCAKYPYYYGTSHWYFDVWGQGTLVTVSSASTKGPSVFPLAPSSKSTSGGTAALGCLVKDYFPEPVTVSWNSGALTSGVHTFPAVLQSSGLYSLSSVVTVPSSSLGTQTYICNVNHKPSNTKVDKRV[in this place human IgG1 Fc with changes]GGGGSGGGGSDIQMTQSPSSLSASVGDRVTITCRTSENVYSNLAWYQQKPGKAPKLLIYAASNLQSGVPSRFSGSGSGTDYTFTISSLQPEDIATYYCQHFWGSPFTFGQGTKLEIKGGSEGKSSGSGSESKSTGGSQVQLVQSGAEVKKPGASVKVSCKASGYTFTNYDIIWVRQAPGQGLEWMGYINPYNDGTKYNEKFKGRVTMTRDTSTSTVYMELSSLRSEDTAVYYCARLLKYRRFRYYAIDYWGQGTTVTVSS | – |

Source: patent US20220119536A1 (Boehringer Ingelheim, published 2022)
